Consider 16 sequences from publication PMC4081100.

Holding throughout (experiment): universal protein binding microarray (PBM)
Holding throughout (conditions): transcription factors of Arabidopsis thaliana; high values mean tight binding; most listed sequences are background and not binding sites; double strand, one strand shown

Assay [1] has as its target GST-NTL6(1-168) (UniProt Q9SCK6).
Assay [2] addresses T1, GST-ANAC019 NAC domain (UniProt Q9C932).
T1 sequence: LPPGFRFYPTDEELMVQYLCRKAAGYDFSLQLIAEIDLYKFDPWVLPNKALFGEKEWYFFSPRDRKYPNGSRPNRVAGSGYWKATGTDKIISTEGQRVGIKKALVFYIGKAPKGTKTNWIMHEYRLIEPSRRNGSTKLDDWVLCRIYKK

In assay [3] the target is T2, GST-NAP(1-166) (UniProt O49255).
T2 sequence: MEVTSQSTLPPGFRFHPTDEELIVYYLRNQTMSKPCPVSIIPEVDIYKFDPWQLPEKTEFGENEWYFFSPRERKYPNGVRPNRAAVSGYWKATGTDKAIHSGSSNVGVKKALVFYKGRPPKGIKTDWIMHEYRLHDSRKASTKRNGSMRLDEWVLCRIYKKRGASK

Assay [4] concerns the target T3, GST-NTL8 NAC domain (UniProt Q9XIN7).
T3 sequence: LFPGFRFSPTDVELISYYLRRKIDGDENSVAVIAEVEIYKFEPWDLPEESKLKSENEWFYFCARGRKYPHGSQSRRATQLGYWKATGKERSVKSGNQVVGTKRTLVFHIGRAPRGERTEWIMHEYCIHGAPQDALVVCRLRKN

The target of assay [5] is T4, GST-SND1(1-203) (UniProt Q9LPI7).
T4 sequence: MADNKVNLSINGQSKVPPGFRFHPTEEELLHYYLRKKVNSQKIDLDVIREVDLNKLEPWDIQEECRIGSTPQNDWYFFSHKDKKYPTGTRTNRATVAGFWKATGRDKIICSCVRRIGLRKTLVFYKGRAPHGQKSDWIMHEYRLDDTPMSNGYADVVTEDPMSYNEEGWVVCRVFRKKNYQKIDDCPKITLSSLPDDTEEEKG

For assay [6], the target named is T5, GST-VND7 NAC domain (UniProt Q9C8W9).
T5 sequence: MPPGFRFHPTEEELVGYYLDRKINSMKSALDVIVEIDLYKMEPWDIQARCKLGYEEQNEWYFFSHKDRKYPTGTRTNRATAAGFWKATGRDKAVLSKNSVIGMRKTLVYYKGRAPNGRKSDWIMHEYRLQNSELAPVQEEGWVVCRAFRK

Assay [7] addresses T6, GST-VOZ2 (Arabidopsis thaliana) (UniProt Q9SLB9).
T6 sequence: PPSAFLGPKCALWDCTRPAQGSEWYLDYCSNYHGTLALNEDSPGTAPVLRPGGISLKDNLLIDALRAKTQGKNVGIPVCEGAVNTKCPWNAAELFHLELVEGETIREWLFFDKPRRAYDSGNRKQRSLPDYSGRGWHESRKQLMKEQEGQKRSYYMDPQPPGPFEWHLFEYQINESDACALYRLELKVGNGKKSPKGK

The target of assay [8] is GST-WRKY1(266-371) (UniProt Q9SI37).
Assay [9] addresses T7, GST-ANAC092(1-176) (UniProt Q9FKA0).
T7 sequence: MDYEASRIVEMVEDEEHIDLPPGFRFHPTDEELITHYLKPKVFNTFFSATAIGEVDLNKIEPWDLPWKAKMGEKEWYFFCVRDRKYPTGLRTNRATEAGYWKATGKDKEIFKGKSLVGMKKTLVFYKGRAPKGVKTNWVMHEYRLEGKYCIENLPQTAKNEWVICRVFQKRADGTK

Assay [10] has as its target T8, GST-ANAC055(1-171) (UniProt Q9LDY8).
T8 sequence: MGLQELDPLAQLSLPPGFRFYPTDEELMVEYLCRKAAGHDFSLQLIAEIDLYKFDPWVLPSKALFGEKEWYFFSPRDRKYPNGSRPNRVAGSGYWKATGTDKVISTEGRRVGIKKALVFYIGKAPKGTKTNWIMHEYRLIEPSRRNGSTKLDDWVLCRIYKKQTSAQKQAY

For assay [11], the target named is T9, GST-ANAC092(1-285) full length (UniProt Q9FKA0).
T9 sequence: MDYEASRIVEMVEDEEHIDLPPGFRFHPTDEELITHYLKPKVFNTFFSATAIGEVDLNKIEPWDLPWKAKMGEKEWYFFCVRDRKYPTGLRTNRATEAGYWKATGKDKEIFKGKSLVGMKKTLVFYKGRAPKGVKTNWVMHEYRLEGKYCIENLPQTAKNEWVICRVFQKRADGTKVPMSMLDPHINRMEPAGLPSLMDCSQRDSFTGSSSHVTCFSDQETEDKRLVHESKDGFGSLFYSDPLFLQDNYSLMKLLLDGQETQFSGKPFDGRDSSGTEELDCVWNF

Assay [12] addresses T10, GST-NST2(1-184) (UniProt Q9M274).
T10 sequence: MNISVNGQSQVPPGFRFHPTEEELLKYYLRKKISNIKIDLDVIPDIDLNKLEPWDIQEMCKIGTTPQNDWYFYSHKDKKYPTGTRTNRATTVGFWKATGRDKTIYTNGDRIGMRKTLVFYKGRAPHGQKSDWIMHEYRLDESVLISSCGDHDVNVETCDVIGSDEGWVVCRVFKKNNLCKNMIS

Assay [13] has as its target T11, GST-ATAF1 NAC domain (UniProt Q39013).
T11 sequence: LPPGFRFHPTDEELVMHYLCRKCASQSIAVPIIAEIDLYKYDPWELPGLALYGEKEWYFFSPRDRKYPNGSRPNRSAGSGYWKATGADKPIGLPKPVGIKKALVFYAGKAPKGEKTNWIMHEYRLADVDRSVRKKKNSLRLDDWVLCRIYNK

The list shows a part of the results, in another mix than the full data. For some assays here: At the low end of the ranking the order means little. The list shows a part of the results. For some assays here: Construct or isoform of the protein are uncertain.

ACACACGC: the binding signal in assay [1] was 0.0666 E-score; in assay [2], 0.169 E-score; in assay [3] it was 0.0855 E-score; in assay [4], -0.0429 E-score; in assay [5] it was 0.221 E-score; in [6], 0.213 E-score. Besides, the binding signal was 0.0306 E-score in assay [7] and -0.0382 E-score in assay [8].
In the case of ATTGACTA, the binding signal in assay [1] is 0.0208 E-score; in assay [2], -0.0072 E-score; in assay [4], -0.0827 E-score; in assay [5] it was 0.0106 E-score; in [6] it was -0.0284 E-score; in assay [7], 0.141 E-score. Besides, the binding signal in [8] came out at 0.466 E-score.
ATGTTGAC: the binding signal is -0.196 E-score in [9]; 0.00187 E-score in assay [1]; -0.144 E-score in [2]; -0.0389 E-score in assay [10]; -0.0758 E-score in assay [11]; -0.0993 E-score in assay [3]. Besides, the binding signal was -0.0585 E-score in assay [12]; -0.188 E-score in assay [4]; -0.0689 E-score in assay [5]; -0.117 E-score in [6]; 0.101 E-score in assay [7]; 0.474 E-score in assay [8].
Turning to TACGTAAA, the binding signal in assay [1] was 0.095 E-score; in assay [4] it was 0.172 E-score; in assay [5], 0.43 E-score; in [6], 0.43 E-score; in [7] it was 0.109 E-score; in assay [8], 0.00836 E-score.
As for ATGCCGTG, the binding signal is -0.153 E-score in assay [1]; 0.35 E-score in assay [13]; 0.443 E-score in assay [11]; 0.397 E-score in assay [3]; 0.0239 E-score in [12]; 0.0115 E-score in assay [4]. For the same sequence, the binding signal in [5] is 0.111 E-score; in assay [6], 0.447 E-score; in [7], -0.117 E-score; in assay [8] it was -0.101 E-score.
Regarding ACGGAACC, the binding signal in assay [1] was -0.0323 E-score; in [13] it was 0.38 E-score; in [3] it was 0.461 E-score; in [5], 0.235 E-score; in assay [6] it was 0.435 E-score; in assay [7] it was -0.132 E-score. Also, the binding signal in [8] was -0.079 E-score.
Take TGCGTACA: the binding signal in assay [1] turned out to be 0.0117 E-score; in assay [13], 0.272 E-score; in assay [4], 0.0577 E-score; in assay [5] it was 0.393 E-score; in [6], 0.281 E-score; in [7], 0.221 E-score. In assay [8], the binding signal is -0.0302 E-score.
As for ATTGGTCA, the binding signal was 0.0884 E-score in assay [9]; 0.0425 E-score in assay [1]; -0.0749 E-score in assay [2]; -0.07 E-score in assay [10]; -0.0277 E-score in assay [13]; 0.105 E-score in assay [11]. Besides, the binding signal in assay [3] was -0.0973 E-score; in [12], 0.0255 E-score; in assay [4], -0.0735 E-score; in assay [5] it was 0.0123 E-score; in [6], -0.0967 E-score; in assay [7], -0.00703 E-score. The sequence further yielded a binding signal in assay [8] of 0.454 E-score.
For AAATACGT, the binding signal in assay [1] came out at 0.0306 E-score; in assay [13] it was 0.346 E-score; in assay [3], 0.29 E-score; in assay [4], 0.101 E-score; in assay [5], 0.21 E-score; in assay [6], 0.263 E-score. Further, the binding signal is 0.151 E-score in [7] and -0.0215 E-score in [8].
For the sequence GATGCGTA, the binding signal in [1] was -0.017 E-score; in assay [10] it was 0.227 E-score; in assay [11] it was 0.416 E-score; in assay [4], -0.0979 E-score; in [5] it was 0.415 E-score; in [6] it was 0.186 E-score. For the same sequence, the binding signal was 0.119 E-score in assay [7] and -0.0693 E-score in assay [8].
ACGTCACC: the binding signal in assay [9] is 0.452 E-score; in assay [1] it was -0.0859 E-score; in assay [10], 0.32 E-score; in assay [13], 0.311 E-score; in [3] it was 0.356 E-score; in assay [12] it was 0.237 E-score. Moreover, the binding signal was -0.117 E-score in assay [4]; 0.408 E-score in [5]; 0.28 E-score in assay [6]; 0.0743 E-score in assay [7]; -1.5e-05 E-score in [8].
With CACGTTAG, the binding signal in assay [1] was -0.0485 E-score; in assay [2], 0.017 E-score; in [10], 0.0916 E-score; in [12], 0.117 E-score; in [4], -0.0227 E-score; in assay [5], 0.237 E-score. The binding signal is 0.0853 E-score in [6], -0.233 E-score in assay [7] and -0.0455 E-score in assay [8].
Consider TTAGTCAA, for which the binding signal was -0.000125 E-score in assay [9]; 0.00528 E-score in assay [1]; 0.12 E-score in assay [2]; -0.0272 E-score in [10]; -0.11 E-score in [3]; -0.0141 E-score in [12]. For the same sequence, the binding signal in [4] was -0.00931 E-score; in assay [5] it was 0.0215 E-score; in assay [6], 0.005 E-score; in assay [7] it was 0.0916 E-score; in assay [8] it was 0.481 E-score.
For AATGGTCA, the binding signal in assay [9] is -0.0559 E-score; in assay [2], -0.117 E-score; in [10] it was -0.0227 E-score; in assay [13], -0.0808 E-score; in assay [11], -0.0166 E-score; in assay [3] it was -0.0978 E-score. Besides, the binding signal in [12] is 0.0454 E-score; in assay [4], -0.062 E-score; in assay [5], 0.0101 E-score; in assay [6], -0.0587 E-score; in assay [7], 0.0565 E-score; in [8], 0.434 E-score.
CACGCAAG: the binding signal in assay [5] is 0.404 E-score; in [6], 0.367 E-score; in [7], -0.0452 E-score; in assay [8], 0.0865 E-score.
For ACACGGTA, the binding signal is 0.437 E-score in [9]; -0.0259 E-score in [1]; -0.0102 E-score in [4]; 0.0105 E-score in [5]; 0.123 E-score in [6]; -0.0877 E-score in [7]. The sequence further showed a binding signal in assay [8] of 0.0158 E-score.
